# According to the supplement of paper PMC4604168 (melanoma cell lines):
# Some of the results follow. Repeats are few or missing, and single values can be far off.
# Tested on: WM451Lu
# Assay: cell count relative to DMSO control; melanoma cells; higher = more viable cells
# Conditions: library dose: standard library concentration; 72 h
# 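Note: cells treated in 1,536-well plates, then fixed and DAPI-stained, with nuclei counted from automated high-throughput microscope images.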
row,SMILES,cell count
1,"CCN(CC)CCNC(=O)c1c(C)[nH]c(/C=C2\C(=O)Nc3ccc(F)cc32)c1C [sunitinib] + Cn1c(Nc2ccc(C(F)(F)F)cc2)nc2cc(Oc3ccnc(-c4ncc(C(F)(F)F)[nH]4)c3)ccc21 [CHIR265] (first compound 2 µM, partner dose 0.4 µM)",30.8%
2,"COc1cc([C@@H]2c3cc4c(cc3[C@@H](O[C@@H]3O[C@@H]5CO[C@@H](C)O[C@H]5[C@H](O)[C@H]3O)[C@H]3COC(=O)[C@H]23)OCO4)cc(OC)c1O [etoposide] + C[C@]1(c2nc3c(C(N)=O)cccc3[nH]2)CCCN1 [Veliparib] (first compound 0.1 µM, partner dose 7 µM)",84.6%
3,"Cn1cnc2c(F)c(Nc3ccc(Br)cc3Cl)c(C(=O)NOCCO)cc21 [selumetinib] + OCc1c[nH]c2ccccc12 [Indole-3-carbinol] (first compound 0.075 µM, partner dose 4 µM)",55.6%
4,"Cn1cnc2c(F)c(Nc3ccc(Br)cc3Cl)c(C(=O)NOCCO)cc21 [selumetinib] + CC(C)C[C@H](NC(=O)[C@H](Cc1ccccc1)NC(=O)c1cnccn1)B(O)O [Bortezomib] (first compound 0.075 µM, partner dose 0.005 µM)",18.6%
5,"CCN(CC)CCNC(=O)c1c(C)[nH]c(/C=C2\C(=O)Nc3ccc(F)cc32)c1C [sunitinib] + CC(=O)O[C@@]12CO[C@@H]1C[C@H](O)[C@@]1(C)C(=O)[C@H](O)C3=C(C)[C@@H](OC(=O)[C@H](O)[C@@H](NC(=O)OC(C)(C)C)c4ccccc4)C[C@@](O)([C@@H](OC(=O)c4ccccc4)[C@H]21)C3(C)C [Docetaxel] (first compound 2 µM, partner dose 0.0005 µM)",24.7%
